# According to the supplement of paper PMC8728848:
# This is one part of the list.
# B1: Gal 3 (Homo sapiens), P17931 (protein)
# chain: MADNFSLHDALSGSGNPNPQGWPGAWGNQPAGAGGYPGASYPGAYPGQAPPGAYPGQAPPGAYHGAPGAYPGAPAPGVYPGPPSGPGAYPSSGQPSAPGAYPATGPYGAPAGPLIVPYNLPLPGGVVPRMLITILGTVKPNANRIQLDFQRGNDVAFHFNPRFNENNRRVIVCNTKLDNNWGREERQSVFPFESGKPFKIQVLVEPDHFKVAVNDAHLLQYNHRVKKLNEISKLGISGDIDLTSASYTMI
# Experiments:
# Assay in all cases: glycan array binding signal (z-score within array); higher = stronger binding
# Conditions in all cases: glycan notation: IUPAC condensed, linker removed; mutation: A146Q
# [1] = molecular target: Neu5Ac(a2-3)Gal(b1-3)GlcNAc(b1-3)Gal(b1-3)GlcNAc
# Summary of the method: (§1)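 Glycan array data came from 3228 arrays in the Consortium for Functional Glycomics database, and only arrays with an available protein sequence were kept. Glycan names were put into IUPAC-condensed notation, and columns mapping to the same glycan were averaged. The binding signal is a within-array Z-score, averaged across arrays of one protein sequence run at different concentrations or buffers and across linkers. A negative Z-score can be read as non-binding.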
# [2] = molecular target: Neu5Ac(a2-3)Gal(b1-3)GlcNAc(b1-3)Gal(b1-4)GlcNAc
# Summary of the method: as §1
# [3] = molecular target: Neu5Ac(a2-3)Gal(b1-3)GlcNAc(b1-3)GalNAc
# Summary of the method: as §1
# [4] = molecular target: Neu5Ac(a2-3)Gal(b1-3)GlcNAc6S
# Summary of the method: as §1
# [5] = molecular target: Neu5Ac(a2-3)Gal(b1-3)[Fuc(a1-4)]GlcNAc
# Summary of the method: as §1
# [6] = molecular target: Neu5Ac(a2-3)Gal(b1-3)[Fuc(a1-4)]GlcNAc(b1-3)Gal(b1-3)[Fuc(a1-4)]GlcNAc
# Summary of the method: as §1
# [7] = molecular target: Neu5Ac(a2-3)Gal(b1-3)[Fuc(a1-4)]GlcNAc(b1-3)Gal(b1-4)[Fuc(a1-3)]GlcNAc
# Summary of the method: as §1
# [8] = molecular target: Neu5Ac(a2-3)Gal(b1-3)[Neu5Ac(a2-3)Gal(b1-4)]GlcNAc
# Summary of the method: as §1
# [9] = molecular target: Neu5Ac(a2-3)Gal(b1-3)[Neu5Ac(a2-6)]GalNAc
# Summary of the method: as §1
# Neu5Ac(a2-3)Gal(b1-4)Glc = molecular target: Neu5Ac(a2-3)Gal(b1-4)Glc
# Summary of the method: as §1
# [10] = molecular target: Neu5Ac(a2-3)Gal(b1-4)GlcNAc
# Summary of the method: as §1
# [11] = molecular target: Neu5Ac(a2-3)Gal(b1-4)GlcNAc(b1-2)Man(a1-3)[GlcNAc(b1-2)Man(b1-4)GlcNAc(b1-2)Man(a1-6)]Man(b1-4)GlcNAc(b1-4)GlcNAc
# Summary of the method: as §1
# [12] = molecular target: Neu5Ac(a2-3)Gal(b1-4)GlcNAc(b1-2)Man(a1-3)[Neu5Ac(a2-6)Gal(b1-4)GlcNAc(b1-2)Man(a1-6)]Man(b1-4)GlcNAc(b1-4)GlcNAc
# Summary of the method: as §1
# [13] = molecular target: Neu5Ac(a2-3)Gal(b1-4)GlcNAc(b1-3)Gal(b1-3)GlcNAc
# Summary of the method: as §1
# [14] = molecular target: Neu5Ac(a2-3)Gal(b1-4)GlcNAc(b1-3)Gal(b1-4)GlcNAc
# Summary of the method: as §1
# [15] = molecular target: Neu5Ac(a2-3)Gal(b1-4)GlcNAc(b1-3)Gal(b1-4)GlcNAc(b1-3)Gal(b1-4)GlcNAc
# Summary of the method: as §1
# [16] = molecular target: Neu5Ac(a2-3)Gal(b1-4)GlcNAc(b1-3)Gal(b1-4)[Fuc(a1-3)]GlcNAc
# Summary of the method: as §1
# [17] = molecular target: Neu5Ac(a2-3)Gal(b1-4)GlcNAc(b1-3)GalNAc
# Summary of the method: as §1
# [18] = molecular target: Neu5Ac(a2-3)Gal(b1-4)GlcNAc(b1-6)[Gal(b1-3)]GalNAc
# Summary of the method: as §1
# [19] = molecular target: Neu5Ac(a2-3)Gal(b1-4)GlcNAc(b1-6)[Neu5Ac(a2-3)Gal(b1-3)]GalNAc
# Summary of the method: as §1
# [20] = molecular target: Neu5Ac(a2-3)Gal(b1-4)GlcNAc6S
# Summary of the method: as §1
# [21] = molecular target: Neu5Ac(a2-3)Gal(b1-4)[Fuc(a1-3)]GlcNAc
# Summary of the method: as §1
# [22] = molecular target: Neu5Ac(a2-3)Gal(b1-4)[Fuc(a1-3)]GlcNAc(b1-3)Gal
# Summary of the method: as §1
# [23] = molecular target: Neu5Ac(a2-3)Gal(b1-4)[Fuc(a1-3)]GlcNAc(b1-3)Gal(b1-4)GlcNAc
# Summary of the method: as §1
# [24] = molecular target: Neu5Ac(a2-3)Gal(b1-4)[Fuc(a1-3)]GlcNAc(b1-3)Gal(b1-4)[Fuc(a1-3)]GlcNAc(b1-3)Gal(b1-4)[Fuc(a1-3)]GlcNAc
# Summary of the method: as §1
# [25] = molecular target: Neu5Ac(a2-3)Gal(b1-4)[Fuc(a1-3)]GlcNAc(b1-3)GalNAc
# Summary of the method: as §1
# [26] = molecular target: Neu5Ac(a2-3)Gal(b1-4)[Fuc(a1-3)]GlcNAc(b1-6)[Gal(b1-3)]GalNAc
# Summary of the method: as §1
# [27] = molecular target: Neu5Ac(a2-3)Gal(b1-4)[Fuc(a1-3)]GlcNAc(b1-6)[Neu5Ac(a2-3)Gal(b1-3)]GalNAc
# Summary of the method: as §1
# [28] = molecular target: Neu5Ac(a2-3)Gal(b1-4)[Fuc(a1-3)]GlcNAc6S
# Summary of the method: as §1
# [29] = molecular target: Neu5Ac(a2-3)Gal6S(b1-4)GlcNAc
# Summary of the method: as §1
# [30] = molecular target: Neu5Ac(a2-3)Gal6S(b1-4)[Fuc(a1-3)]GlcNAc
# Summary of the method: as §1
# Neu5Ac(a2-3)GalNAc = molecular target: Neu5Ac(a2-3)GalNAc
# Summary of the method: as §1
# [31] = molecular target: Neu5Ac(a2-3)GalNAc(b1-4)GlcNAc
# Summary of the method: as §1
# [32] = molecular target: Neu5Ac(a2-3)[GalNAc(b1-4)]Gal(b1-4)Glc
# Summary of the method: as §1
# [33] = molecular target: Neu5Ac(a2-3)[GalNAc(b1-4)]Gal(b1-4)GlcNAc
# Summary of the method: as §1
# [34] = molecular target: Neu5Ac(a2-3)[GalNAc(b1-4)]Gal(b1-4)GlcNAc(b1-3)GalNAc
# Summary of the method: as §1
# [35] = molecular target: Neu5Ac(a2-3)[Neu5Ac(a2-6)]GalNAc
# Summary of the method: as §1
# Neu5Ac(a2-6)Gal = molecular target: Neu5Ac(a2-6)Gal
# Summary of the method: as §1
# Neu5Ac(a2-6)Gal(b1-4)Glc = molecular target: Neu5Ac(a2-6)Gal(b1-4)Glc
# Summary of the method: as §1
# [36] = molecular target: Neu5Ac(a2-6)Gal(b1-4)GlcNAc
# Summary of the method: as §1
binder,measurement,setting,value
B1,glycan array binding signal (z-score),[1],-0.104
same,glycan array binding signal (z-score),[2],-0.074
same,glycan array binding signal (z-score),[3],-0.186
same,glycan array binding signal (z-score),[4],-0.2
same,glycan array binding signal (z-score),[5],-0.123
same,glycan array binding signal (z-score),[6],-0.195
same,glycan array binding signal (z-score),[7],-0.2
same,glycan array binding signal (z-score),[8],-0.18
same,glycan array binding signal (z-score),[9],-0.2
same,glycan array binding signal (z-score),Neu5Ac(a2-3)Gal(b1-4)Glc,-0.163
same,glycan array binding signal (z-score),[10],-0.188
same,glycan array binding signal (z-score),[11],0.025
same,glycan array binding signal (z-score),[12],-0.182
same,glycan array binding signal (z-score),[13],-0.196
same,glycan array binding signal (z-score),[14],-0.188
same,glycan array binding signal (z-score),[15],0.494
same,glycan array binding signal (z-score),[16],-0.193
same,glycan array binding signal (z-score),[17],-0.171
same,glycan array binding signal (z-score),[18],-0.204
same,glycan array binding signal (z-score),[19],-0.198
same,glycan array binding signal (z-score),[20],-0.133
same,glycan array binding signal (z-score),[21],-0.194
same,glycan array binding signal (z-score),[22],-0.186
same,glycan array binding signal (z-score),[23],-0.197
same,glycan array binding signal (z-score),[24],-0.202
same,glycan array binding signal (z-score),[25],-0.15
same,glycan array binding signal (z-score),[26],-0.189
same,glycan array binding signal (z-score),[27],-0.144
same,glycan array binding signal (z-score),[28],-0.188
same,glycan array binding signal (z-score),[29],-0.183
same,glycan array binding signal (z-score),[30],-0.201
same,glycan array binding signal (z-score),Neu5Ac(a2-3)GalNAc,-0.201
same,glycan array binding signal (z-score),[31],-0.199
same,glycan array binding signal (z-score),[32],-0.2
same,glycan array binding signal (z-score),[33],-0.202
same,glycan array binding signal (z-score),[34],-0.166
same,glycan array binding signal (z-score),[35],-0.189
same,glycan array binding signal (z-score),Neu5Ac(a2-6)Gal,-0.197
same,glycan array binding signal (z-score),Neu5Ac(a2-6)Gal(b1-4)Glc,-0.192
same,glycan array binding signal (z-score),[36],-0.191
